According to publication PMC4049591:
Results are given in words; binding and its absence hold for the method and conditions named. Binding seen in cells or lysates may run through a third protein. Some entries that bind do so weakly or less than the wild type. Where a sequence is shown, tags or fusion partners need not be part of it.

What was measured:
Experiment in all cases: co-IP; 293T cells transfected with Myc-tagged EDEMs (10% of the DNA normally used); lysed in buffer with 1% Triton; immunoprecipitated with Myc antibodies; blotted for endogenous SEL1L, HRD1, Bip, calnexin and ERp57
[1] = target: T1, Myc-tagged EDEM1 active site mutant E493Q (human) (UniProt Q92611)
T1 sequence: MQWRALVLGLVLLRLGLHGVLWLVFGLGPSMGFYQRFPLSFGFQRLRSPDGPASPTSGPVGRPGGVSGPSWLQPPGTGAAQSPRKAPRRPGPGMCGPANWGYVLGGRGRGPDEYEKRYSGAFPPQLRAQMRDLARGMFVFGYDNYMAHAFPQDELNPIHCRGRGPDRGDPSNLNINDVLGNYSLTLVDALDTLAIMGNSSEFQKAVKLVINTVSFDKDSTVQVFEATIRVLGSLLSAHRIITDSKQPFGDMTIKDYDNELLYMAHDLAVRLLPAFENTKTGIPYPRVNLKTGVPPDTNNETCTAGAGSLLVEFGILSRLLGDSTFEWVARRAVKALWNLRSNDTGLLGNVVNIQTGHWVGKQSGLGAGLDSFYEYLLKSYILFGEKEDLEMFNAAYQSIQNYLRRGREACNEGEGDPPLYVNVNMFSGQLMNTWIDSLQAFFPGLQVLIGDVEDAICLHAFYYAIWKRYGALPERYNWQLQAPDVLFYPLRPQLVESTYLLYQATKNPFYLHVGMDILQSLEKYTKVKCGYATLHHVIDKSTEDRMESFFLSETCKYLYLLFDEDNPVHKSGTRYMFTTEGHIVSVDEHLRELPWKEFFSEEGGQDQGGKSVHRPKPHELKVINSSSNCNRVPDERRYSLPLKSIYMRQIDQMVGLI

[2] = target: T2, Myc-tagged wild type EDEM2 (human) (UniProt Q9BV94)
T2 sequence: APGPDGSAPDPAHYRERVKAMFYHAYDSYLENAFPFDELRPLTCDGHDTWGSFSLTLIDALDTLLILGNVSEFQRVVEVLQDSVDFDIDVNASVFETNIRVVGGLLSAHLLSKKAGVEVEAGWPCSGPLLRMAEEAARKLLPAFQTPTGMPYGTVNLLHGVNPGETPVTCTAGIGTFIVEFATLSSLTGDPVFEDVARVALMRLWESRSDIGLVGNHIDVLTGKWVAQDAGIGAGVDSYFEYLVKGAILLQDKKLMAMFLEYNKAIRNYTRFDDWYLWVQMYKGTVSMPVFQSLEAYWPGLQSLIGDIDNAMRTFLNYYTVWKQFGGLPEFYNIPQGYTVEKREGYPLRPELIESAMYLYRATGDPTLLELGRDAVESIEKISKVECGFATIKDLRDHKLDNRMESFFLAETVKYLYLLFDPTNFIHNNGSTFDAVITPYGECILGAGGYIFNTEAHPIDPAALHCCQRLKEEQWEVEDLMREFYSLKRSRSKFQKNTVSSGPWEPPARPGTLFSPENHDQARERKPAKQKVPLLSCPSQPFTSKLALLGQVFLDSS

[3] = target: T3, Myc-tagged wild type EDEM3 (human) (UniProt Q9BZQ6)
T3 sequence: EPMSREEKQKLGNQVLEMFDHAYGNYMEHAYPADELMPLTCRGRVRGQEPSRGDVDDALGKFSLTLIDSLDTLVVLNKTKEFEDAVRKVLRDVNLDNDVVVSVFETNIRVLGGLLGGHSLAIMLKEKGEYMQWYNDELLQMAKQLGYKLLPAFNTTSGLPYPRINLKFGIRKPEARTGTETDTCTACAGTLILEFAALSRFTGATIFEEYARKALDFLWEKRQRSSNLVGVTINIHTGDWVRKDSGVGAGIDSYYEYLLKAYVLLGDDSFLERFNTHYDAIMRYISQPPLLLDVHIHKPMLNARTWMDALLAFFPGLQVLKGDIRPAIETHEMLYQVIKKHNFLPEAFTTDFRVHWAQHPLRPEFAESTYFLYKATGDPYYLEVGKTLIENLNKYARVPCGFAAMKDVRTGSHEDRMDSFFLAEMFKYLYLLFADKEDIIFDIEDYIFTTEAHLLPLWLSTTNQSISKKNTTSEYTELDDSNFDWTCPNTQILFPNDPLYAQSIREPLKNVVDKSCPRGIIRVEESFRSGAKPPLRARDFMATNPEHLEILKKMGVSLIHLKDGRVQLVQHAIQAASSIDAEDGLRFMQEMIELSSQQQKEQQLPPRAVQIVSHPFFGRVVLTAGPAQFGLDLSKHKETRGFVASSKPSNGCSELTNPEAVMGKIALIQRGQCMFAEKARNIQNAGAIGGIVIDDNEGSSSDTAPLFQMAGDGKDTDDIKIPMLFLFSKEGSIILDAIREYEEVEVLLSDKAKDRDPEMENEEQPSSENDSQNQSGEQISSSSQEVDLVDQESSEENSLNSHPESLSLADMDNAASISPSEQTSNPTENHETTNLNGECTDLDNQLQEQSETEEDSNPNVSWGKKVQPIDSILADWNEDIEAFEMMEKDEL

B1: Calnexin (protein, UniProt P27824 21-592)
chain: HDGHDDDVIDIEDDLDDVIEEVEDSKPDTTAPPSSPKVTYKAPVPTGEVYFADSFDRGTLSGWILSKAKKDDTDDEIAKYDGKWEVEEMKESKLPGDKGLVLMSRAKHHAISAKLNKPFLFDTKPLIVQYEVNFQNGIECGGAYVKLLSKTPELNLDQFHDKTPYTIMFGPDKCGEDYKLHFIFRHKNPKTGIYEEKHAKRPDADLKTYFTDKKTHLYTLILNPDNSFEILVDQSVVNSGNLLNDMTPPVNPSREIEDPEDRKPEDWDERPKIPDPEAVKPDDWDEDAPAKIPDEEATKPEGWLDDEPEYVPDPDAEKPEDWDEDMDGEWEAPQIANPRCESAPGCGVWQRPVIDNPNYKGKWKPPMIDNPSYQGIWKPRKIPNPDFFEDLEPFRMTPFSAIGLELWSMTSDIFFDNFIICADRRIVDDWANDGWGLKKAADGAAEPGVVGQMIEAAEERPWLWVVYILTVALPVFLVILFCCSGKKQTSGMEYKKTDAPQPDVKEEEEEKEEEKDKGDEEEEGEEKLEEKQKSDAEEDGGTVSQEEEDRKPKAEEDEILNRSPRNRKPRRE
[1]
  binding: binds
[2]
  binding: binds
[3]
  binding: binds weakly
